# Reference: article PMC12040169 (PLOS Biology, 2025)
# The other results are listed elsewhere or left out.
# Test system: T1, C. trachomatis L2/434/Bu expressing GFP (CTL2-GFP)
# T1 construct: L2/434/Bu GFP intracellular growth in HeLa cells
# Parameters: species or system HeLa; C. trachomatis total inclusion area by high-content imaging, normalised to DMSO
# Details: total inclusion area; 28.5 h, 10 µM; inhibitor
# Procedure, shortened: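 Following bulk GFP and resorufin fluorescence reads, infected cells were fixed, Hoechst-stained and imaged on a high-content platform. Inclusion total area and number per well served as growth proxies; nuclei counts indicated host viability. MICs were derived as for the fluorescence assay.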
row,SMILES,% of control remaining
1,c1ccc2c(-c3cn4ccnc4c(NC4CCOCC4)n3)cccc2c1 [CBK038047],136.458
2,Cc1ccc(-c2nn(-c3cc(N4CCN(CCO)CC4)ccc3[N+](=O)[O-])c(=O)c3ccccc23)cc1C [CBK263713],84.529
3,CC1OC(n2ccc(=S)[nH]c2=O)C(O)C1O (stereo not shown) [CBK012231],64.4354
4,Cc1nonc1NC(=O)Nc1ccncc1 [CBK260982],85.7634
5,CC(NC(=O)c1ncoc1-c1ccc(F)cc1)c1ccccn1 (stereo not shown) [CBK283846],79.6611
6,CC(C)(C)SCCNc1nc(Cl)nc(N2CCSCC2)n1 [CBK018768],80.5013
7,Cc1ccc2ccccc2c1Cn1cc(-c2ccc([N+](=O)[O-])cc2)nc1SCC(=O)NC(C)(C)C [CBK264493],87.9099
8,COc1ccc(S(=O)(=O)NCCc2ccc(S(N)(=O)=O)cc2)cc1[N+](=O)[O-] [CBK267598],111.453
9,Cc1nnnn1-c1cc(NC(=O)NCCc2ccnn2C)ccc1F [CBK306428],132.853
10,COC(=O)c1ccsc1NS(=O)(=O)c1ccc(C)c([N+](=O)[O-])c1 [CBK039061],132.067
11,COC(=O)c1ccccc1NC(=O)CSc1nc(C)cc(C(F)(F)F)n1 [CBK268682],95.648
12,O=C(Nc1ccc(Cl)cc1)N1CCN(CCCCc2ccc(F)cc2)CC1 [CBK017951C],25.5825
13,C[C@]12CN(Cc3ccc(F)cc3)C[C@H]1NC(=O)c1ccccc1C2=O [CBK284728],98.7438
14,CC1CCc2nc(NC(=O)CC3CCN(C(=O)Cc4ccccc4)CC3)sc2C1 (stereo not shown) [CBK286509],102.006
15,COC(=O)c1csc2c1NC1(CCC1)[C@@H]1C[C@@H](O)[C@@H](O)[C@H]21 [CBK303255],114.544
16,Nc1ncn(CC(O)CO)c2nc(N3CCOCC3)nc1-2 (stereo not shown) [CBK009231],102.621
17,c1ccc2sc(CCSCCc3nc4ccccc4s3)nc2c1 [CBK261036],95.0937
18,CNC(=O)CN1C(=O)CC2(C1=O)C(=O)N(CCOC)c1ccc(C)cc12 (stereo not shown) [CBK075401],102.356
19,CC(=O)N1CCc2c([nH]c3ccccc23)C1CCN(C)Cc1ccc(F)cc1 (stereo not shown) [CBK066969],96.1056
20,O=c1[nH]c2ncc(-c3cncc4ccccc34)nc2n1Cc1ccccc1 [CBK065113],80.2082
21,O=C(OCCC1SC(NC2CC3C=CC2C3)=NC1=O)c1c(F)cccc1Cl (stereo not shown) [CBK200061T],0.3723
22,CCn1c(SCC(=O)N2CCCC2)nc2cc(C)[nH]c2c1=O [CBK288027],94.3595
